The chains are these.
B1: LINE1-mini (parent)
chain: GGCAGAGCUCAACACAGCGUGGCAAAGUGGCUGUGGCUAGACUGCC

Results on 167 variants are retold here after the RNAGym collection of RNA variant scans (doi:10.7554/elife.90254).

The source gives no read counts; variants with many changes may rest on few reads.

Variants of B1 are the subject of this data set. Briefly: self-cleavage, relative activity (ratio to wild type); higher = more cleavage; in vitro, sequencing; the parent is a self-cleaving ribozyme.
Turning to C10A C37G U43C C45A, the self-cleavage was 0.
Regarding C10A C23A C45G, the self-cleavage stood at 0.01.
The value for C10A A16C G27U was 0.07.
Turning to C10A U20C C45A, the self-cleavage was 0.25.
In the case of C10A A14C U20C C23A G30U, the self-cleavage was found to be 0.01.
Regarding C10A G17U G33U C45U, the self-cleavage is 0.04.
For C10A G33C C45U, the self-cleavage was 0.01.
As to C10A C13U C18U U20C G27A G35U, the self-cleavage came out at 0.02.
The figure for C10A C13U A24G G36U A41C is 0.02; for C10A G17A U38G it is 0.11.
For the variant C10A A11C G19C U28C U32A G36A, the self-cleavage was found to be 0.01.
The value for C10A A14C G21A G27U U34A G44A was 0.01.
The figure for C10A A14G G35C is 0; for C10A C18G C42A it is 0.04.
Turning to C10A A25C A41U, the self-cleavage came out at 0.02.
The figure for C10A C13U A25U A41G is 0.
Consider C10A C23U C45A, for which the self-cleavage was determined as 0.03.
Consider C10A G29A G30U C45U, for which the self-cleavage turned out to be 0.03.
The figure for C10A C13G G17C G40C G44U is 0.02; for U9G C31U G35A C42A it is 0.02; for C10A U28G G35A C46U it is 0.03.
For the variant C10G A12C A24C G33C, the self-cleavage was 0.01.
Regarding C10A A12G G30U, the self-cleavage was 0.
With C10A G21C A24C A26G G30U, the self-cleavage came to 0.03.
The value for C10A C15U G21A was 0.02.
For the variant C10A C18G G22A C46A, the self-cleavage amounted to 0.27.
With C10A C13A G40U, the self-cleavage amounted to 0.01.
The value for C10A C15U G29U C46A was 0.04; that for C10A A11G A26C G30A U34C A41U was 0.01.
U9G U20G C37G: the self-cleavage came to 0.03.
The value for C10A A14G U20G was 0; that for C10A U20G G30C G44U was 0.04; that for C10A C15A A25C C42A was 0.01.
C10G A11U A14C G19A: the self-cleavage was found to be 0.02.
The value for C10A G21C C23G C45U was 0.05.
Take U9G U38G G40C: the self-cleavage amounted to 0.02.
Take C10A G21U G27A: the self-cleavage came out at 0.06.
The figure for U9G G29A G40C is 0.05.
On to U9G G21C C23G U34A U38C C42A, for which the self-cleavage was 0.02.
Consider U9G G21C C31U, for which the self-cleavage was found to be 0.03.
The figure for C10A A11G A25C U28G G36C is 0.01.
For the variant C10A U34C C46U, the self-cleavage worked out at 0.04.
C10A A26C C37U: the self-cleavage amounted to 0.02.
In the case of C10A A25U G35A C42G U43G, the self-cleavage came to 0.01.
The value for U9G C23G U32G was 0.02.
Regarding U9G G21U U34C, the self-cleavage turned out to be 0.09.
The figure for C10A C18A U38A is 0.06; for C10A G29U G44U it is 0.07.
Consider C10A A12G A26G, for which the self-cleavage was found to be 0.02.
The figure for C10A C23U A24C U28C is 0.02; for C10A C15U G27A C42G it is 0.02; for C10A C13G C23G it is 0.03.
The figure for U9G G21U G27A is 0.04; for U9G C23A A25G A26C it is 0.17; for C10A C15U C31G C45U it is 0.02.
The figure for U9G G17C G22U C23A G29U U34C is 0.11; for C10A A12G G21C it is 0.01; for C10A A14C G33U C46A it is 0.02.
For the variant C10A A12G C18U G36C A41G, the self-cleavage was 0.
The figure for U9G C18A A25U G33A is 0.12; for U9G C13U U32G it is 0.01.
Take C10A G19U G30A G44U: the self-cleavage is 0.06.
As for C10A C13U G19U, the self-cleavage was found to be 0.01.
In the case of C10A A24U A26G, the self-cleavage came out at 0.34.
In the case of C10A U20G C31U, the self-cleavage was determined as 0.02.
Consider C10A A11C A16G G21U A26G G36U U38G, for which the self-cleavage is 0.01.
The value for C10A A14C U28G C46A was 0.01; that for C10A G30A C42A was 0.06.
Regarding C10A A24C U38G U43C, the self-cleavage came out at 0.01.
The figure for U9G G17A G21A U34A C42G is 0.07; for U9G C13G C45U it is 0.16; for C10A G40U U43C it is 0.01.
The value for C10A G40U U43G was 0.02; that for C10A G19U C23A G30U G33A was 0.03; that for U9G G19A G29A C46G was 0.28.
The figure for C10A C15A G19A C31U G40U is 0.01; for C10A G17U G21U A25C C37A A41G it is 0.01; for C10A A12G G22C G40A it is 0.
Regarding C10A C15A G17C G21U, the self-cleavage was 0.04.
The figure for C10A C15G C42U is 0.01; for C10A A24G G27C it is 0.04.
Turning to C10A A11G A41C G44U, the self-cleavage amounted to 0.03.
The figure for C10A A26U U28A G40C is 0.01; for C10A A16G G30U C31A it is 0.04; for C10A U20A G27U it is 0.03.
The figure for C10A A14U G22A G30U is 0.35; for C10A A11C G27C U32G it is 0.02.
The figure for U9G G19U G29A is 0.04; for C10A G21U U34C G40C G44C it is 0.02.
Consider C10A C18G G36C A41G, for which the self-cleavage came out at 0.03.
Consider C10A A24U A39G U43G, for which the self-cleavage is 0.04.
The figure for U9G C31U C45A is 0.08; for U9G G21A A26U U28A it is 0.07.
The figure for C10A G22C C31U is 0; for C10A C13A A26U G29C it is 0.01.
The figure for C10A C13U A16G C42G C46U is 0.01.
Turning to C10A C13G C18A G30A G40A, the self-cleavage was 0.01.
Take C10G A11G U34A: the self-cleavage was determined as 0.01.
C10A A11C U20C U28C G44A: the self-cleavage came to 0.
The figure for C10A C13A G17U U32G C45G is 0; for C10A A14U G17U G22C C42U it is 0.
The figure for C10A A12G A25C is 0.
With C10A A12C A41C, the self-cleavage was found to be 0.02.
The value for C10A C31U C42G was 0.02; that for C10A A39U C46U was 0.35.
Regarding C10A G19C C23U C45A, the self-cleavage stood at 0.
The value for C10A A12U C13G C15A G17A was 0.01; that for C10A G19A G29U U34C was 0.01; that for C10A A12C G27A U28A G30A G35C G36A was 0.01.
The value for C10A G17A C23U A25U was 0.01.
The value for U9G C15A U28G G40C was 0.04; that for C10A G22A G33U C45A was 0.02; that for C10A A11C G29U U34C was 0.02.
For the variant C10A A16U A26U C31U, the self-cleavage came to 0.01.
The value for U9G C15U G29A C42U was 0.08; that for U9G G17U C31G A41U was 0.08.
C10A A16G U34A G40C: the self-cleavage is 0.
For the variant C10A A11G G19U C46U, the self-cleavage worked out at 0.01.
The value for C10A G29A G36U was 0.01; that for C10A C13U C45A was 0.06.
The value for C10A C37A C42U C46G was 0.01; that for C10A G19U C37U A41G G44C was 0.01.
Turning to C10A A16C G19A G30A U38C, the self-cleavage was determined as 0.02.
With U9G G22A U28A, the self-cleavage was 0.04.
The figure for C10A G33A C42A G44C is 0.06; for C10A C15U G21C A25C it is 0.08.
Take C10A C13U G21U G29C U32C C42U U43A: the self-cleavage was determined as 0.
Turning to U9G G19U C46G, the self-cleavage was 0.06.
Regarding C10A G19A G33U G44C, the self-cleavage is 0.01.
Regarding C10A G17U C18A G40U, the self-cleavage worked out at 0.04.
With C10A C15U C45U, the self-cleavage turned out to be 0.08.
For C10A A16U G40A C46A, the self-cleavage turned out to be 0.1.
The figure for C10A C23G A25U is 0.12.
The figure for U9G C15A G40C is 0.07.
Consider C10A C13G G30A, for which the self-cleavage worked out at 0.
The value for U9G C13U C46A was 0.14.
As to U9G G17U G19C G21C, the self-cleavage was determined as 0.
The figure for C10A A14C G29U is 0.02; for C10A G30C C31A it is 0.03; for C10G A11G U28C G36U it is 0.
For C10A C42A U43A, the self-cleavage was found to be 0.05.
As to C10A A11C C13U U34G A39C, the self-cleavage worked out at 0.06.
C10A A14C G17U: the self-cleavage turned out to be 0.03.
In the case of C10A C45A C46G, the self-cleavage was determined as 0.04.
Consider C10A C18G G19C G21C, for which the self-cleavage is 0.01.
The figure for U9G G17U G19U G44C is 0.04.
C10A A14U C15A A26U U38G: the self-cleavage was determined as 0.
The value for U9G C18G U20C A25C G27A was 0.16; that for C10A A25C A26C G30U C31A was 0.06; that for C10A G27U C46U was 0.04.
In the case of U9G G29U C42A, the self-cleavage came out at 0.05.
The figure for C10A G22U U28C is 0.12; for C10A A12G G19C U20C it is 0.04; for C10A C18A A26C U32C G36U it is 0.
Take C10A A14G A16G C31U A39U: the self-cleavage worked out at 0.01.
For the variant C10A U32A G33A, the self-cleavage was 0.02.
The value for C10A C13G C31A G44U was 0.04; that for C10A A12C G30A A39C was 0; that for C10A A16U U32C was 0.03.
With C10A G44A C45A, the self-cleavage was determined as 0.05.
Take C10A C18U C46A: the self-cleavage was determined as 0.07.
The value for C10A A26G G27U G40U was 0.03.
The figure for U9G G30U C31A is 0.04; for U9G G22U C31G A41U C46U it is 0.05; for U9G C13A U34G it is 0.08.
Turning to C10A G19U C23U A25C, the self-cleavage was 0.03.
The value for C10A C18A A39G was 0.02.
